Test results: PubChem BioAssay AID504339 (National Center for Advancing Translational Sciences (NCATS), 2011)
About 17,000 (4.4%) of roughly 390,000 compounds were called active. Inconclusive results, whose numbers are uncertain, are shown with a selection of clear calls. The call rests on the fitted dose curve; in most records, active means well fitted inhibition curve with a large enough effect; inconclusive means small, poorly fitted or top-dose-only effect; inactive means no such curve, though single readings can be large or run the other way. Potencies of inconclusive entries are doubtful fits and often do not repeat.

biological target: Lysine-specific demethylase 4A (Homo sapiens) (UniProt O75164); assay: qHTS Assay for Inhibitors of JMJD2A-Tudor Domain; conditions: AlphaScreen JMJD2A-Tudor / H3K4me3 peptide binding; series mostly up to 114 µM; further: nearly all actives have a fitted effect of over 50% in size
Chain of UniProt O75164 (O75164 whole entry, looked up, the tested form may be a part): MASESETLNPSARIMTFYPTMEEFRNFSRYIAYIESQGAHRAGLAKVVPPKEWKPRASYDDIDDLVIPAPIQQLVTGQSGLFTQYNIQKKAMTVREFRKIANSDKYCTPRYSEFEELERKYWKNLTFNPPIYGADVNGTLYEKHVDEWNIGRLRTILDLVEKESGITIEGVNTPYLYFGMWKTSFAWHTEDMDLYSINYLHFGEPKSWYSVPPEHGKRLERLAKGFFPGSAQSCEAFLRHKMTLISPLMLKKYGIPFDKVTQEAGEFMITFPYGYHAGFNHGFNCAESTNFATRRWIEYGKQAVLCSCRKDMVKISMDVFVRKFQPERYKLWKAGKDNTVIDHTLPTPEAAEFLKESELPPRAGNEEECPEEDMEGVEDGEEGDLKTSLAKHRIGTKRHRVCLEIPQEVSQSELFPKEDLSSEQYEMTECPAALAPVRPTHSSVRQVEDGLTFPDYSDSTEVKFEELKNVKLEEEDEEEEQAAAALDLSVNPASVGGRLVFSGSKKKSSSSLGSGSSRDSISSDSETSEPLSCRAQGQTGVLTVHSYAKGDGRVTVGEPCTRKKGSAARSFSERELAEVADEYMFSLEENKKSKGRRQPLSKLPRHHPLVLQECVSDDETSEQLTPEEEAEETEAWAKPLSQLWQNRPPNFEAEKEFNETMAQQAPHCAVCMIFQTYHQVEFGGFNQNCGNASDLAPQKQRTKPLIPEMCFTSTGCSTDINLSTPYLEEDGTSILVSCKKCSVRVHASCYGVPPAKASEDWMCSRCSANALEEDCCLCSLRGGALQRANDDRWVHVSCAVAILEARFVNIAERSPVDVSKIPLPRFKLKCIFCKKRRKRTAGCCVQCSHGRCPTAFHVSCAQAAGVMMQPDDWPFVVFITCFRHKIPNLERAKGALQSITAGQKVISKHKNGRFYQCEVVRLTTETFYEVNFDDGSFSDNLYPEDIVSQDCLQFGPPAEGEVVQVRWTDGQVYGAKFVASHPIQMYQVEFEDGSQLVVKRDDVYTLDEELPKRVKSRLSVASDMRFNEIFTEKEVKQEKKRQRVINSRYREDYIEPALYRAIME
Potency means the concentration at half of the fitted maximal effect; tags describe the fitted curve by direction and shape.

Row | Compound | Potency
1 | COc1ccccc1CNC(=O)CSc1nnc2c(n1)[nH]c1ccc(F)cc12 | inactive
2 | CCNC(=S)N/N=C/c1ccc(-c2ccccc2)o1 | inconclusive: 56.2 µM [inhibitor, partial curve]
3 | CCN1/C(=C/C=C/c2oc3ccc4ccccc4c3[n+]2CC)Oc2ccc3ccccc3c21 | inconclusive: 44.7 µM [inhibitor, partial curve]
4 | NC(=O)c1sc2nccc(Nc3ccccc3)c2c1N | inconclusive: 22.4 µM [inhibitor, full curve]
5 | Cc1ccc(-c2nn[nH]n2)o1 | inconclusive: 100 µM [inhibitor, single point]
6 | O=C(NC(=S)N1CCCc2ccccc21)c1ccc([N+](=O)[O-])cc1 | inconclusive: 39.8 µM [inhibitor, partial curve]
7 | CC[C@H](CO)Oc1cc(NCc2ccc(Cl)c(Cl)c2)c2ncn(C(C)C)c2c1 | active: 31.6 µM
8 | Cc1nc(N2CCOCC2)nc(N2CCCCC2C)c1[N+](=O)[O-] (configuration not stated) | inconclusive: 28.2 µM [inhibitor, full curve, poor fit]
9 | CCOC(=O)c1[nH]c(C)c(/C(O)=C2\C(=O)C(=O)N(CCN3CCOCC3)C2c2cccs2)c1C (configuration not stated) | inconclusive: 39.8 µM [inhibitor, partial curve]
10 | Cc1ccc(C)c(OCCC(=O)OCC(=O)NCCc2ccc(S(N)(=O)=O)cc2)c1 | inactive
11 | Cc1ccc(C)c(NC(=O)C2CCN(c3cc(C)nc4c(-c5ccc(Cl)cc5)c(C)nn34)CC2)c1 | inactive
12 | CCN(CC)Cc1c(NC(=O)c2ccccc2)sc(C)c1C | inactive
13 | Cn1c(C(=O)N[C@@H](Cc2ccccc2)C(=O)NCCC(=O)O)cc2cc(Cl)ccc21 | inconclusive: 1.78 µM [inhibitor, partial curve]
14 | CN(Cc1ccccc1)c1ccc(N2C(=O)CCC2=O)cc1[N+](=O)[O-] | inconclusive: 44.7 µM [inhibitor, partial curve]
15 | C=C(C)C(=O)Nc1cccc(C2=NOC3(C2)C[C@@H](C(N)=O)N(C(=O)/C=C/C=C/C)C3)c1 (some centres not stated) | active: 3.16 µM
16 | COCCn1c(-c2ccco2)csc1=Nc1cccnc1 | active: 89.1 µM
17 | CCc1sc(C(=O)NCc2ccco2)cc1C | inactive
18 | COc1ccccc1/C=C/CN1CCSCC1 | active: 6.31 µM
19 | COc1ccc(C2Nc3ccccc3C(=O)N2Cc2ccccc2OC)cc1COc1ccc(NC(C)=O)cc1 (configuration not stated) | inconclusive: 63.1 µM [inhibitor, partial curve, poor fit]
20 | COc1ccc(CCNC(=O)c2ccc3c(c2)ncn3-c2ccc(C(C)C)cc2)cc1OC | inconclusive: 17.8 µM [inhibitor, full curve]
21 | CCCC(C)c1nnc(NC(=O)c2cc(C(=O)OC)cc([N+](=O)[O-])c2)s1 (configuration not stated) | inconclusive: 56.2 µM [inhibitor, partial curve]
22 | CCN(CC)c1ccc(/C=N/NC(=S)NCc2ccco2)cc1 | inconclusive: 70.8 µM [inhibitor, single point]
23 | COc1ccc(NC2CCCN(C(=O)CCc3ccccc3F)C2)cc1 (configuration not stated) | inconclusive: 39.8 µM [inhibitor, partial curve, poor fit]
24 | S=c1[nH]nc(Cc2ccc(Cl)cc2)o1 | inconclusive: 15.8 µM [inhibitor, full curve, poor fit]

Row | Compound | Potency
25 | Cc1ccc(NC(=O)Nc2c(C)n(C)n(-c3ccccc3)c2=O)cc1C | active: 14.1 µM
26 | CC(=O)N1CC=CC1(C)C(=O)O (configuration not stated) | inactive
27 | C=CCOC(=O)c1ccc(-n2cnc(C)n2)nc1 | inactive
28 | COc1ccc(-c2coc(CCC(=O)N3CCN(c4cc(C)ccc4C)CC3)n2)cc1 | inconclusive: 56.2 µM [inhibitor, partial curve]
29 | CC[C@@H](C)CN1C(=O)N[C@@H](c2ccccc2)C(C(C)=O)=C1C | inconclusive: 79.4 µM [inhibitor, partial curve]
30 | CCCCN=C1C([N+](=O)[O-])=CC=C2C1=NC1(CCCCC1)N2O | inconclusive: 5.01 µM [inhibitor, partial curve]
31 | CC(=O)c1ccc(-n2c(-c3cc(-c4ccco4)[nH]n3)n[nH]c2=S)cc1 | inconclusive: 39.8 µM [inhibitor, partial curve]
32 | O=C(CCc1nnc(Cc2ccc3c(c2)OCO3)o1)NCCc1ccccc1Cl | inconclusive: 15.8 µM [inhibitor, full curve]
33 | Cn1c(CSCc2ccccc2)nnc1SCC(=O)Nc1ccc(C(=O)O)cc1 | inactive
34 | Cc1ccc(SCC(Cc2ccccc2)N2CCN(CC(C)C)CCC2=O)cc1 (configuration not stated) | inactive
35 | CCOC(=O)CSc1cc(-c2ccccc2)nc2ncnn12 | inactive
36 | CCN(CC)C(=O)C1CCCN(c2ccc([N+](=O)[O-])cc2/C=N/NC(=O)c2cccc(O)c2)C1 (configuration not stated) | inactive
37 | CCN(c1cccc(C)c1)S(=O)(=O)c1c(C)nc2sc(C)cn2c1=O | inactive
38 | Cc1ccc(SCC(=O)Nc2ccc3c(c2)C(=O)NC3=O)cc1 | inactive
39 | CCCCNc1cc(NC(C)=O)cc2cc(OC)c(OC)cc12 | inconclusive: 63.1 µM [inhibitor, partial curve, poor fit]
40 | O=C(N=Nc1c(O)n(Cc2ccccc2)c2ccccc12)c1cc2ccccc2cc1O | inconclusive: 89.1 µM [inhibitor, partial curve]
41 | COc1ccc(C(=O)Oc2cc(-c3ccc(OC)c(OC)c3)cc(=O)c3c(C)oc(C)c23)cc1 | inconclusive: 56.2 µM [inhibitor, partial curve]
42 | CCN(CC)S(=O)(=O)c1ccc2c(c1)nc(SCn1nnc3ccccc3c1=O)n2CC | inactive
43 | Nn1c(SCc2c(F)cccc2F)nnc1-c1ccccn1 | active: 8.91 µM
44 | O=C(Oc1cccc2cccnc12)c1ccc2c(c1)OCCO2 | inconclusive: 44.7 µM [inhibitor, partial curve, poor fit]
45 | O=C(Nc1nnc(-c2ccc(F)cc2)o1)c1ccco1 | active: 79.4 µM
46 | O=C(Cc1ccccc1)Nc1cccc(N2C(=O)C=CC2=O)c1 | active: 20 µM
47 | CC(NC(=O)c1cn(C)c2ccc(S(=O)(=O)N3CCCC3)cc2c1=O)c1ccccc1 (configuration not stated) | inactive
48 | Cc1ccc(C(C)C)c(OCC(=O)Nc2ccc(O)c(-c3nc4cc(Cl)ccc4o3)c2)c1 | inactive

Row | Compound | Potency
49 | CCCOc1cccc(C(=O)Nc2cccc(NC(=O)c3ccc(Cl)cc3Cl)c2)c1 | inactive
50 | COCCNCC(=O)Nc1ccc(OC(F)(F)F)cc1 | active: 0.794 µM
51 | Cc1ccc(S(=O)(=O)N2CCOCC2)cc1NC(=O)c1cc2c(s1)CCC2 | inconclusive: 100 µM [inhibitor, single point]
52 | Cc1cccc(C)c1OC(=O)CSc1nnc(-c2ccc3c(c2)OCO3)o1 | inactive
53 | COc1ccc(CNC(=O)[C@H](CCSC)NC(=O)N2CCn3c2nc2ccccc23)cc1 | inconclusive: 44.7 µM [inhibitor, partial curve]
54 | Cc1cc(C(=O)O)ccc1-c1ccc(/C=C2\NC(=O)N(Cc3ccccc3Cl)C2=O)o1 | active: 44.7 µM
55 | O=C1C(=O)N(Cc2cccnc2)C(c2cccc(Br)c2)/C1=C(/O)c1ccc2c(c1)OCO2 (configuration not stated) | inconclusive: 28.2 µM [inhibitor, full curve]
56 | Cc1cc(C)c2sc(N(CCCN(C)C)C(=O)c3ccc(S(=O)(=O)N(C)Cc4ccccc4)cc3)nc2c1 | inconclusive: 15.8 µM [inhibitor, full curve, poor fit]
57 | O=C(NCc1ccco1)C1CCCN(S(=O)(=O)c2ccc(Br)cc2)C1 (configuration not stated) | inconclusive: 63.1 µM [inhibitor, partial curve, poor fit]
58 | COc1ccc(CCNC(=O)c2c(C)oc3ncn(CC(C)C)c(=O)c23)c(OC)c1 | inactive
59 | O=C(NC1CCCCC1)C(c1ccncc1)N(CC1CCCO1)C(=O)C(F)(F)F (configuration not stated) | inconclusive: 89.1 µM [inhibitor, partial curve, poor fit]
60 | CC1(c2ccccc2)NC(=O)N(Cc2ccc([N+](=O)[O-])cc2)C1=O (configuration not stated) | inactive
61 | C/C=C(/C)C(=O)Nc1cccc(C2=NOC3(C2)C[C@@H](C(N)=O)N(C(=O)CCCCC)C3)c1 (some centres not stated) | inactive
62 | CCN(CCCNC(=O)c1cc2c(-c3cccc(OC)c3)nn(C)c2s1)Cc1ccccc1 | inconclusive: 79.4 µM [inhibitor, partial curve]
63 | O=C1C=C(c2ccc(OC(F)(F)F)cc2)C[C@@H](c2ccc(F)cc2)C1 | inactive
64 | CC(OC(=O)c1ccc(NC(=O)CC#N)cc1)C(=O)Nc1nc(-c2ccccc2)cs1 (configuration not stated) | inconclusive: 22.4 µM [inhibitor, full curve, poor fit]
65 | O=C(Nc1nnc(S(=O)(=O)N2CCCCCC2)s1)c1ccc(Cl)cc1 | inconclusive: 11.2 µM [inhibitor, full curve]
66 | Cc1cc(C)n(CCNC(=O)c2cc(COc3ccc(F)cc3Cl)on2)n1 | inactive
67 | COc1ccc(Cl)cc1NC(=O)CSc1nnc(Cc2cccn2C)n1-c1ccc(F)cc1 | inconclusive: 79.4 µM [inhibitor, partial curve]
68 | Cc1ccc(-n2c(N)cc(=O)nc2SCC(=O)NC2CCCCC2)cc1C | inactive
69 | Cn1cccc1C(=O)OCC(=O)c1cc2ccccc2o1 | inconclusive: 50.1 µM [inhibitor, partial curve]
70 | CCCOc1ccc(C2CC(=O)Nc3cc(OC)c(OC)cc32)cc1 (configuration not stated) | inconclusive: 70.8 µM [inhibitor, partial curve]
71 | Cc1ccc(Nc2ccc(N)cc2S(=O)(=O)O)cc1 | inactive
72 | Cn1cccc1-c1cc(C(=O)N/N=C/C=C/c2ccccc2)[nH]n1 | inconclusive: 10 µM [inhibitor, partial curve, poor fit]
